This is one part of the list.

This test relates to PfHDP1 homeodomain (GST-tagged). The experiment in a line: gcPBM binding intensity (ln(normalized median fluorescence intensity)); higher = stronger DNA binding. A digest of the protocol: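 An Agilent 4 × 180k array carrying primer-extended double-stranded 36-bp intergenic genomic probes and negative controls received GST-tagged P. falciparum DNA-binding domains expressed in E. coli, about 25 μg on average, for 1 h. The binding buffer contained 1× PBS, 1% milk, 0.2 mg/ml BSA, 0.5% salmon testes DNA and 0.03% Triton X-100. Binding intensity is the top Masliner-normalised natural-log median intensity across replicate spots of either probe orientation, read after Alexa488 anti-GST antibody staining and a 488 nm scan.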
In the case of “TGGTAAAGGAGCAAGATGATAAATCTCCATAACTTT [CACACA_negctrl_site492]”, the “gcPBM binding intensity (ln)” value is 6.28.

Regarding “ATGTCTATAATAAGAACACACATATATTTAATTTAA [CACACA_site7394]”, the “gcPBM binding intensity (ln)” value is 6.26.

Turning to “TATATATATATGTATACACACATACAAATATGTAAA [CACACA_site9238]”, the “gcPBM binding intensity (ln)” value was 9.02.

For the sequence “GTTGGTACCTTACTTTTACACACTTTTTTTTTTTTT [CACACA_site8441]”, the “gcPBM binding intensity (ln)” value is 6.51.

Regarding “CTATATTCGTTTAATAGTACATATATAACTAGACAA [XGTACX_site5770]”, the “gcPBM binding intensity (ln)” value is 6.6.

For “AAAAGAAATATTTATACACACACACTAACATATATA [CACACA_site8580]”, the “gcPBM binding intensity (ln)” value amounted to 7.04.

Consider “TTATATATAATTACATGTACGTAGTATTATTTAAAT [XGTACX_site3418]”, for which the “gcPBM binding intensity (ln)” value is 6.51.

As to “TTATCATTTTAATGGTGTACTCAATAAAAACTTTAA [XGTACX_site4595]”, the “gcPBM binding intensity (ln)” value was 6.05.

For the sequence “GTGAAAAAAAACATATGTACTTATACACTAATCTAT [XGTACX_site7600]”, the “gcPBM binding intensity (ln)” value came out at 6.56.

Take “AAAAAAAAAAAACACACACACACATAAATATATATA [CACACA_site149]”: the “gcPBM binding intensity (ln)” value was 7.01.

For “TGTAAATTTGGCATCACACATAAATAAACATATAAA [CACACA_site4497]”, the “gcPBM binding intensity (ln)” value came out at 6.65.

For the sequence “TATTAACATATATAAAGTACATTAAACAACATTGTA [XGTACX_site7667]”, the “gcPBM binding intensity (ln)” value is 6.44.

In the case of “TACACAAGCGGACACACACACATATATATATATATA [CACACA_site4832]”, the “gcPBM binding intensity (ln)” value came to 9.37.

Regarding “AACATTCTAAAACACACACACACATATATATATATA [CACACA_site1052]”, the “gcPBM binding intensity (ln)” value amounted to 9.25.

“TTTTCACTTTTAAAAACATGCATACTTTATAAAATA [TGCATGCA_site967]”: the “gcPBM binding intensity (ln)” value stood at 6.65.

As for “TATATATAAAAAAGCACACATACATACATACATAAT [CACACA_site890]”, the “gcPBM binding intensity (ln)” value amounted to 6.85.

Turning to “ATAAAAAAAATTTGCACACCTTCAAAGTAATATATA [CACACA_site1584]”, the “gcPBM binding intensity (ln)” value worked out at 10.2.

For the sequence “AAAAAAAAAAAAAGTACATGCAATATGGATCTTAAA [TGCATGCA_site367]”, the “gcPBM binding intensity (ln)” value was determined as 6.48.

For the sequence “TAATTTTTTTTTTTTTTTTTTGTACTTCATTTTTAT [CACACA_negctrl_site1395]”, the “gcPBM binding intensity (ln)” value was 5.93.

For the sequence “CATATAAAAGGACACACACACACATATAAATATGTA [CACACA_site6568]”, the “gcPBM binding intensity (ln)” value stood at 6.59.

For the sequence “ATTTTTATAGAATGAACACACATATTATAGCATTTA [CACACA_site6842]”, the “gcPBM binding intensity (ln)” value came out at 6.33.

As for “TGCTATTTTATTTATTCTTTTATAAAAGTATAATAT [XGTACX_negctrl_site358]”, the “gcPBM binding intensity (ln)” value amounted to 6.62.

Regarding “ATGTAATTATAAGATTAATATACATAATTATATGTA [GTGCAC_negctrl_site458]”, the “gcPBM binding intensity (ln)” value was found to be 6.13.

Take “AACATACATGTATATAGTACATATTACATCTGATAC [XGTACX_site3649]”: the “gcPBM binding intensity (ln)” value was 6.27.

For “TACACAAGAAAATTCACACACACACCCATATATATA [CACACA_site3879]”, the “gcPBM binding intensity (ln)” value was 6.97.

For “CATAGATACATACACGCACACACATATATATATATA [CACACA_site13]”, the “gcPBM binding intensity (ln)” value stood at 9.24.

“GTATTACCTTATTATTGTACTTTCATGATATATATG [XGTACX_site5382]”: the “gcPBM binding intensity (ln)” value was determined as 6.91.

As for “TTAATGAATGGACACACACACATATATATATATATT [CACACA_site5294]”, the “gcPBM binding intensity (ln)” value is 6.76.

In the case of “TATTTAATTATTTGTAGTACGATTAATATTTAATGA [XGTACX_site3553]”, the “gcPBM binding intensity (ln)” value was found to be 6.13.

For the sequence “ATAGAATATTAATAATTAAAAATAAAATAAAATAAA [CACACA_negctrl_site1810]”, the “gcPBM binding intensity (ln)” value worked out at 6.46.

Consider “CTTAATAAGAATAAATGTACAAGGGATAAAAAATTT [XGTACX_site3213]”, for which the “gcPBM binding intensity (ln)” value was found to be 6.84.

For the sequence “ATTATATTCTTTACTACCAATTAGTAGAAAATAAAA [CACACA_negctrl_site1096]”, the “gcPBM binding intensity (ln)” value was 6.32.

Turning to “ATATATATATGTTTGTGTACTTATGATATCATATAA [XGTACX_site3276]”, the “gcPBM binding intensity (ln)” value came out at 8.54.

For “TAAATAAATAAAAATAGTACATAATTATTATTATTA [XGTACX_site4981]”, the “gcPBM binding intensity (ln)” value worked out at 6.2.

For the sequence “TTTTAAAAAATATAATAATATAAATATGTTTTATAC [CACACA_negctrl_site643]”, the “gcPBM binding intensity (ln)” value worked out at 6.19.

On to “TTAAAATAGCTAGTTTGTACATAAAATATATTACTT [XGTACX_site202]”, for which the “gcPBM binding intensity (ln)” value amounted to 6.18.

In the case of “AATATATATATATATATTTTTGTTAGAATATGGAAT [GTGCAC_negctrl_site434]”, the “gcPBM binding intensity (ln)” value turned out to be 6.55.

As for “ATATATATGTATGTATGTACACACAAAAAATGGAAT [XGTACX_site7879]”, the “gcPBM binding intensity (ln)” value worked out at 7.94.

As to “ATATGCTATTATATATGTACACACCAATTTATTTAT [XGTACX_site8364]”, the “gcPBM binding intensity (ln)” value came out at 7.02.

On to “TACAAAATAAATGGAACATGCAAAAAAATTGATTAA [TGCATGCA_site790]”, for which the “gcPBM binding intensity (ln)” value turned out to be 6.56.

As to “AAAAAAAAAAAAAAAACACACATTTTAAGAAAAAAA [CACACA_site2926]”, the “gcPBM binding intensity (ln)” value is 6.46.

Regarding “TATATTAGAAAGGATACACACATATATATATATCTA [CACACA_site570]”, the “gcPBM binding intensity (ln)” value was 6.19.

Regarding “TATACGCAGAAACACACACACATACACCCACATACA [CACACA_site1723]”, the “gcPBM binding intensity (ln)” value is 6.9.

“TATCTTATAAACTCTGCACACATAATATATTAAATG [CACACA_site8587]”: the “gcPBM binding intensity (ln)” value turned out to be 8.34.

Source of the values: the supplement of paper PMC11417369.
